# Data as given in PubChem BioAssay (Tox21).
# “And” between values parts separate entries of the source, which are not always exact repeats. Identical values can stand only once. The inconclusive results got no clear call from the source; some entries with a clear call stand among them for comparison. Potencies of inconclusive entries are doubtful fits and often do not repeat. Some compounds were tested as several samples or in several runs, with calls that do not always agree. The source made the active and inactive calls. Unless noted, calls come from the whole dose curve.
# Assays:
# [1] = qHTS assay for small molecule agonists of the p53 signaling pathway (AID 651631); details: HCT-116 p53RE-bla reporter, beta-lactamase FRET ratio, 16 h; activation: at 73.3 µM (top of the series) unless noted; note: nearly all actives have a fitted effect of over 15% in size; for activation: % is set by controls: 0 for no effect and ±100 for the full control effect
# Procedure, shortened: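 p53RE-bla HCT-116 cells; compounds 16 h, 37 °C; LiveBLAzer B/G FRET substrate 2 h RT; fluorescence intensity read-out, qHTS format.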
# [2] = qHTS assay for small molecule disruptors of the mitochondrial membrane potential - cell viability (AID 720634); note: nearly all actives have a fitted effect of over 20% in size
# Procedure, shortened: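 Measuring cytotoxicity alongside mitochondrial potential, the screen quantified ATP by luminescence in HepG2 cells after 1 hr compound incubation and a 30 min room-temperature CellTiter-Glo step.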
# [3] = qHTS assay for small molecule disruptors of the mitochondrial membrane potential (AID 720635; active = well fitted curve in the direction sought with a large enough effect in the repeat runs; inconclusive = weak or mixed curves; inactive = no such curve, though single readings can be large; an effect the other way counts as inactive or inconclusive; for ratio activity, negative = MMP loss: % is set by controls: 0 for no effect and ±100 for the full control effect); details: HepG2 mitochondrial membrane potential, Mito-MPS dye ratio; ratio activity, negative = MMP loss: at 83.2 µM (top of the series) unless noted
# Procedure, shortened: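 Mitochondrial membrane potential tracked with Mito-MPS dye, red aggregates (ex 540/em 590 nm) against green monomers (ex 490/em 535 nm). Compound treatment 1 hr at 37C, dye 30 min in HepG2.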
# [4] = target: Glucocorticoid receptor (Homo sapiens) (UniProt P04150); experiment: qHTS assay to identify small molecule antagonists of the glucocorticoid receptor (GR) signaling pathway (AID 720692; active = well fitted inhibition curve with a large enough effect in the signal ratio in the repeat runs, not every such curve was filed as active; inconclusive = weak or mixed curves, or effect the other way; inactive = no such curve, though single readings can be large or run the other way; the % refers to the signal ratio; for activity change, negative = inhibition: % is set by controls: 0 for no effect and ±100 for the full control effect); details: GR-bla HeLa, beta-lactamase FRET ratio, dexamethasone-stimulated, 18 h; activity change, negative = inhibition: at 58.5 µM (top of the series) unless noted
# Procedure, shortened: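 Dexamethasone (5 nM final) stimulated a stably integrated GRE-beta-lactamase reporter in HeLa cells during 18 h co-incubation with compounds; signal was quantified as fluorescence intensity of B/G FRET substrate after 2 h.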
# [5] = qHTS assay for identifying genotoxic compounds that show differential cytotoxicity against isogenic chicken DT40 cell lines with known DNA damage response pathways - wild type cell line (AID 743012; active = well fitted curve in the direction sought with a large enough effect in the repeat runs; inconclusive = weak or mixed curves; inactive = no such curve, though single readings can be large; an effect the other way counts as inactive or inconclusive; note: nearly all actives have a fitted effect of over 60% in size); details: DT40 wild type chicken cells viability, CellTiter-Glo, 40 h; activity change, negative = cytotoxicity: at 68.4 µM (top of the series) unless noted
# Procedure, shortened: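 Using parental DT40 (300 cells/well), compounds delivered in DMSO incubate 40 h at 37 C/5% CO2. CellTiter-Glo reagent then stands 30 min at room temperature, and luminescence gives cell viability.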
# [6] = qHTS assay for identifying genotoxic compounds that show differential cytotoxicity against isogenic chicken DT40 cell lines with known DNA damage response pathways - Rev3 mutant cell line (AID 743014; active = well fitted curve in the direction sought with a large enough effect in the repeat runs; inconclusive = weak or mixed curves; inactive = no such curve, though single readings can be large; an effect the other way counts as inactive or inconclusive; note: nearly all actives have a fitted effect of over 55% in size); details: chicken DT40 Rev3-/- viability, CellTiter-Glo, 40 h; activity, negative = cytotoxicity: at 68.4 µM (top of the series) unless noted
# [7] = target: Glucocorticoid receptor (Homo sapiens) (UniProt P04150); experiment: qHTS assay to identify small molecule agonists of the glucocorticoid receptor (GR) signaling pathway (AID 720691; active = well fitted activation curve with a large enough effect in the signal ratio in the repeat runs, not every such curve was filed as active; inconclusive = weak or mixed curves, or effect the other way; inactive = no such curve, though single readings can be large or run the other way; the % refers to the signal ratio); details: GR-bla HeLa, beta-lactamase reporter ratio, 18 h; activation: at 62.4 µM (top of the series) unless noted
# Procedure, shortened: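 Reporter read-out: fluorescence intensity following 2 h room-temperature LiveBLAzer B/G FRET substrate loading. Prior step: GR-bla HeLa cells held 4 h, then treated 18 h at 37 C.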
# [8] = qHTS assay to identify small molecule antagonists of the glucocorticoid receptor (GR) signaling pathway - cell viability counter screen (AID 720693; active = well fitted curve in the direction sought with a large enough effect in the repeat runs; inconclusive = weak or mixed curves; inactive = no such curve, though single readings can be large; an effect the other way counts as inactive or inconclusive; note: nearly all actives have a fitted effect of over 55% in size); details: GR-bla HeLa viability, CellTiter-Glo luminescence, 18 h, with 5 nM dexamethasone present; viability change, negative = cytotoxic: at 58.5 µM (top of the series) unless noted
# [9] = qHTS assay for small molecules that induce genotoxicity in human embryonic kidney cells expressing luciferase-tagged ATAD5 - cell viability (AID 651634); note: nearly all actives have a fitted effect of over 25% in size; for activity, negative = cytotoxicity: % is set by controls: 0 for no effect and ±100 for the full control effect
# Procedure, shortened: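 Seeding of 2,000 HEK293T ATAD5-luciferase cells per well preceded pin-tool compound transfer. Plates sat 15.5 hr at 37C under 5% CO2, then fluorescence was read after 30 min with CellTiter-Fluor.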
# [10] = qHTS assay for identifying genotoxic compounds that show differential cytotoxicity against isogenic chicken DT40 cell lines with known DNA damage response pathways - Rad54/Ku70 mutant cell line (AID 743015; active = well fitted curve in the direction sought with a large enough effect in the repeat runs; inconclusive = weak or mixed curves; inactive = no such curve, though single readings can be large; an effect the other way counts as inactive or inconclusive; note: nearly all actives have a fitted effect of over 60% in size); details: DT40 Rad54/Ku70 mutant viability, CellTiter-Glo, 40 h; activity change, negative = cytotoxicity: at 66.8 µM (top of the series) unless noted
# Potency is the fitted concentration of half-maximal effect; tags give direction and shape of the fitted curve or compound fluorescence and quenching.
# Sequence of UniProt P04150 (P04150 whole entry, looked up): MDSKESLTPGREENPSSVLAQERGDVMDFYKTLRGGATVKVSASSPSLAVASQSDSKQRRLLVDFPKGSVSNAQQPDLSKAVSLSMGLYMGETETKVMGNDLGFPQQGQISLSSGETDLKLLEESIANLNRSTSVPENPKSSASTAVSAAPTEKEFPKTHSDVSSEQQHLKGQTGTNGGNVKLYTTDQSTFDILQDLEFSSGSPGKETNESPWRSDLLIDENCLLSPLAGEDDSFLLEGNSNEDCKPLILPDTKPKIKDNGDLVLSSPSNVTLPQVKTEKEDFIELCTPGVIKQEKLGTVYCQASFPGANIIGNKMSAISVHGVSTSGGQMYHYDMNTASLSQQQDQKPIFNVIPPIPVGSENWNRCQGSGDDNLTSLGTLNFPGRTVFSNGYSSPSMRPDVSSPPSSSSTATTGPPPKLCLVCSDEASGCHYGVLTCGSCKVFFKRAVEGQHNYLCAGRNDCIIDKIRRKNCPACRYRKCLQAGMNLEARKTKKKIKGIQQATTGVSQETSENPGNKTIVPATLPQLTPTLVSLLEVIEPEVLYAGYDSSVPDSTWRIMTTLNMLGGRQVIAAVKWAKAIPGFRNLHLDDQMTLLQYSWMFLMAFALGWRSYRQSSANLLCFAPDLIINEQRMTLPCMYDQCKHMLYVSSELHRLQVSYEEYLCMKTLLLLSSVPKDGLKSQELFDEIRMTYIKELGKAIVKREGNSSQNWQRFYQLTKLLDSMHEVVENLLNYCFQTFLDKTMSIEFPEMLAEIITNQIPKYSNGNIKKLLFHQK
smiles,measurement,setting,value
Cc1ccc(-c2c(Cl)nc(C#N)n2S(=O)(=O)N(C)C)cc1,Potency,[1],active: 15.3 µM
same,Potency,[2],"inconclusive: 24.3 µM [cytotoxic, partial curve]"
same,Potency,[3],active: 1.09 µM
same,Potency,[4],"inconclusive: 1.38 µM [activator, partial curve]"
same,Potency,[5],active: 61.1 µM
ClC1=C(Cl)[C@]2(Cl)[C@H]3[C@H]([C@H]4C=C[C@H]3C4)[C@@]1(Cl)C2(Cl)Cl,Potency,[1],"inconclusive: 17.2 µM [rising, full curve]"
same,Potency,[2],"inconclusive: 54.5 µM [cytotoxic, partial curve, poor fit]"
same,Potency,[3],active: 43.3 µM
same,Potency,[4],active: 49 µM
same,Potency,[5],"inconclusive: 54.5 µM [cytotoxic, partial curve, poor fit]"
same,Potency,[6],"inconclusive: 6.11 µM [cytotoxic, partial curve, poor fit]"
CCCCCCCCCCCC[N+](C)(C)CCOc1ccccc1,Potency,[1],"inconclusive: 26.6 µM [cytotoxic, partial curve] and inconclusive: 17.2 µM [cytotoxic, full curve]"
same,Potency,[2],active: 68.6 µM
same,Potency,[3],active: 26.6 µM and active: 30.6 µM
same,Potency,[7],"inconclusive: 15.1 µM [cytotoxic, partial curve] and inconclusive: 8.71 µM [cytotoxic, full curve]"
same,Potency,[8],inconclusive: 26.8 µM [cytotoxic] and active: 17.4 µM
CS/C(C)=N/OC(=O)N(C)SN(C)C(=O)O/N=C(\C)SC,Potency,[1],inconclusive: 68.6 µM [activator]
same,Potency,[9],"inconclusive: 68.6 µM [falling, single point]"
same,Potency,[3],inactive
same,"activity change, negative = inhibition",[4],inconclusive: -52.1%
same,Potency,[6],active: 17.2 µM
COC(=O)N(C(=O)N1CO[C@@]2(C(=O)OC)Cc3cc(Cl)ccc3C2=N1)c1ccc(OC(F)(F)F)cc1,Potency,[1],active: 46.9 µM
same,Potency,[2],active: 3.32 µM
same,Potency,[3],active: 13.2 µM
O=S(=O)(c1ccc(Cl)cc1)c1ccc(Cl)cc1,activation,[1],inconclusive: 8.09% [at 95.1 µM]
same,Potency,[2],"inconclusive: 39 µM [cytotoxic, partial curve, poor fit]"
same,Potency,[3],active: 4.92 µM
same,"activity change, negative = inhibition",[4],inconclusive: -22.5% [at 78.9 µM]
O=C(CCl)C(Cl)Cl,Potency,[1],active: 13.8 µM
same,Potency,[2],active: 49 µM
same,Potency,[3],active: 61.7 µM
same,Potency,[7],"inconclusive: 9.87 µM [rising, full curve]"
same,Potency,[4],active: 35 µM
same,Potency,[8],"inconclusive: 22.1 µM [cytotoxic, single point]"
O=C(CBr)c1ccc(O)cc1,activation,[1],inconclusive: 3.86%
same,Potency,[9],inactive
same,Potency,[3],"inconclusive: 30.6 µM [activator, partial curve]"
same,Potency,[5],"inconclusive: 68.6 µM [cytotoxic, single point]"
same,Potency,[10],"inconclusive: 68.6 µM [cytotoxic, single point]"
Clc1ccc(CO/N=C(\Cn2ccnc2)c2ccc(Cl)cc2Cl)c(Cl)c1,Potency,[1],inconclusive: 33.5 µM
same,Potency,[9],"inconclusive: 33.5 µM [falling, partial curve, poor fit]"
same,Potency,[3],"inconclusive: 23.7 µM [inhibitor, partial curve, poor fit]"
same,Potency,[7],inconclusive: 26.8 µM [single point]
same,Potency,[4],"inconclusive: 30.1 µM [inhibitor, partial curve, poor fit]"
N#CC(CCc1ccc(Cl)cc1)(Cn1cncn1)c1ccccc1 (configuration not stated),Potency,[1],inconclusive: 68.6 µM [cytotoxic]
same,Potency,[9],"inconclusive: 61.1 µM [falling, partial curve]"
same,Potency,[3],active: 48.6 µM
same,Potency,[4],active: 49 µM
same,Potency,[5],active: 13.7 µM
NS(=O)(=O)C(F)(F)C(F)(F)C(F)(F)C(F)(F)C(F)(F)C(F)(F)C(F)(F)C(F)(F)F,Potency,[1],"inconclusive: 68.6 µM [activator, single point]"
same,Potency,[2],"inconclusive: 24.3 µM [cytotoxic, partial curve]"
same,Potency,[3],active: 1.93 µM
same,Potency,[7],"inconclusive: 49 µM [falling, partial curve]"
same,Potency,[4],"inconclusive: 34.7 µM [cytotoxic, partial curve, poor fit]"
same,Potency,[6],active: 34.4 µM
same,Potency,[10],"inconclusive: 68.6 µM [cytotoxic, single point]"
O=C1C(Cl)C(CCl)CN1c1cccc(C(F)(F)F)c1 (configuration not stated),Potency,[1],inactive
same,Potency,[2],"inconclusive: 77 µM [cytotoxic, single point]"
same,"ratio activity, negative = MMP loss",[3],inconclusive: -8.48%
same,"activity change, negative = inhibition",[4],inconclusive: 29.7%
same,Potency,[5],"inconclusive: 27.3 µM [cytotoxic, partial curve, poor fit]"
CC(C)(O)C(=O)Nc1ccc([N+](=O)[O-])c(C(F)(F)F)c1,Potency,[1],"inconclusive: 27.9 µM [activator, full curve, poor fit] and inconclusive: 44.7 µM [activator, partial curve, poor fit]"
same,Potency,[2],"inconclusive: 27.9 µM [cytotoxic, partial curve] and inconclusive: 31.6 µM [cytotoxic, partial curve]"
same,Potency,[3],active: 15.7 µM and active: 17.8 µM
CCN(CC)c1nc(C)cc(OP(=S)(OC)OC)n1,Potency,[1],inactive
same,Potency,[2],"inconclusive: 48.6 µM [cytotoxic, partial curve, poor fit]"
same,"ratio activity, negative = MMP loss",[3],inconclusive: -26.9%
CCCC(Cn1cncn1)c1ccc(Cl)cc1Cl (configuration not stated),Potency,[1],inconclusive: 68.6 µM [single point]
same,Potency,[2],"inconclusive: 43.3 µM [cytotoxic, partial curve]"
same,Potency,[3],"inconclusive: 0.545 µM [activator, full curve, poor fit]"
same,activation,[7],inconclusive: -7.29%
same,Potency,[4],active: 49 µM
same,Potency,[8],"inconclusive: 30.9 µM [cytotoxic, partial curve]"
COc1cc(C=O)cc2c1[C@H](COC(N)=O)[C@]1(OC(C)=O)ON2C[C@H]2[C@@H]1N2C(C)=O,Potency,[1],active: 1.54 µM
same,Potency,[9],"inconclusive: 43.3 µM [falling, partial curve, poor fit]"
same,Potency,[3],inactive
same,Potency,[8],active: 0.49 µM
same,"activity, negative = cytotoxicity",[6],inconclusive: -96.8%
Cc1cc(C(C)(C)c2ccc(O)c(C)c2)ccc1O,Potency,[1],active: 13 µM
same,Potency,[2],"inconclusive: 65.3 µM [cytotoxic, partial curve, poor fit]"
same,Potency,[3],active: 6.53 µM
same,Potency,[7],"inconclusive: 16.5 µM [rising, partial curve]"
same,Potency,[4],active: 13.1 µM
same,Potency,[8],inactive
same,Potency,[10],"inconclusive: 26 µM [cytotoxic, partial curve, poor fit]"
Oc1ccc(Cl)c(Cl)c1,Potency,[1],inactive
same,Potency,[2],"inconclusive: 21.4 µM [cytotoxic, partial curve, poor fit]"
same,Potency,[3],active: 6.75 µM
C[Si](Cn1cncn1)(c1ccc(F)cc1)c1ccc(F)cc1,Potency,[1],inconclusive: 70.8 µM [single point] and inconclusive: 68.6 µM [single point]
same,Potency,[2],"active: 31.6 µM and inconclusive: 61.1 µM [cytotoxic, partial curve, poor fit]"
CC1COC(Cn2cncn2)(c2ccc(Oc3ccc(Cl)cc3)cc2Cl)O1 (configuration not stated),Potency,[1],inconclusive: 61.1 µM [activator]
same,Potency,[9],"inconclusive: 27.3 µM [falling, partial curve, poor fit]"
same,Potency,[3],active: 61.1 µM
same,Potency,[4],active: 43.6 µM
same,Potency,[8],"inconclusive: 11 µM [rising, single point]"
same,Potency,[10],active: 2.43 µM
CC(C)N(C(=O)SCC(Cl)=C(Cl)Cl)C(C)C,Potency,[1],inactive
same,Potency,[2],"inconclusive: 67.7 µM [cytotoxic, partial curve, poor fit] and inconclusive: 68.6 µM [cytotoxic, partial curve, poor fit]"
same,Potency,[3],"active: 13.5 µM and inconclusive: 48.6 µM [inhibitor, partial curve, poor fit]"
same,Potency,[7],inactive
same,Potency,[4],inactive
same,Potency,[5],"inconclusive: 38.1 µM [rising, partial curve, poor fit]"
COC(=O)C(C)N(C(=O)Cc1ccccc1)c1c(C)cccc1C (configuration not stated),Potency,[1],"inconclusive: 27.3 µM [rising, partial curve, poor fit]"
same,Potency,[2],"inconclusive: 34.4 µM [cytotoxic, partial curve, poor fit]"
same,"ratio activity, negative = MMP loss",[3],inconclusive: -14.8%
same,Potency,[4],"inconclusive: 27.5 µM [inhibitor, partial curve]"
CC(C)(C)C(O)(CCc1ccc(Cl)cc1)Cn1cncn1 (configuration not stated),Potency,[1],inactive
same,Potency,[2],"inconclusive: 61.9 µM [cytotoxic, partial curve, poor fit]"
same,Potency,[3],"inconclusive: 61.9 µM [inhibitor, single point] and inconclusive: 68.6 µM [inhibitor, single point]"
same,Potency,[4],"inconclusive: 44.2 µM [inhibitor, partial curve] and active: 43.6 µM"
same,Potency,[5],"inconclusive: 69.4 µM [cytotoxic, single point]"
CCOC(=O)OC1=C(c2cc(C)ccc2C)C(=O)NC12CCC(OC)CC2 (configuration not stated),Potency,[1],active: 68.5 µM
same,Potency,[2],active: 10.9 µM
same,Potency,[3],active: 21.7 µM
same,"activity change, negative = inhibition",[4],inconclusive: -28.3%
same,Potency,[10],"inconclusive: 68.5 µM [cytotoxic, single point]"
CC(C)(C)c1ccc(CSc2cnn(C(C)(C)C)c(=O)c2Cl)cc1,Potency,[1],"inconclusive: 0.0193 µM [falling, full curve]"
same,Potency,[2],active: 24.3 µM
same,Potency,[3],active: 7.7 µM
same,Potency,[7],inactive
same,"activity change, negative = inhibition",[4],inconclusive: -40.4%
same,Potency,[8],inactive
